{
  "source": "the supplement of paper PMC8728848",
  "assay_in_all_cases": "glycan array binding signal (z-score within array); higher = stronger binding",
  "details_in_all_cases": "glycan notation: IUPAC condensed, linker removed",
  "key": {"[1]": {"biological_target": "Neu5Ac(a2-6)Gal(b1-4)GlcNAc(b1-2)Man(a1-3)[Man(a1-6)]Man(b1-4)GlcNAc(b1-4)GlcNAc", "procedure,_shortened": "(§1)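 The Consortium for Functional Glycomics database supplied 3228 glycan arrays, of which those lacking an available protein sequence were dropped. The binding signal, a within-array Z-score, was averaged across arrays of the same protein sequence and across linkers. Negative scores can be read as non-binding.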"}, "[2]": {"biological_target": "Neu5Ac(a2-6)Gal(b1-4)GlcNAc(b1-2)Man(a1-3)[Neu5Ac(a2-3)Gal(b1-4)GlcNAc(b1-2)Man(a1-6)]Man(b1-4)GlcNAc(b1-4)GlcNAc", "procedure,_shortened": "as §1"}, "[3]": {"biological_target": "Neu5Ac(a2-6)Gal(b1-4)GlcNAc(b1-2)Man(a1-3)[Neu5Ac(a2-6)Gal(b1-4)GlcNAc(b1-2)Man(a1-6)]Man(b1-4)GlcNAc(b1-4)GlcNAc", "procedure,_shortened": "as §1"}, "[4]": {"biological_target": "Neu5Ac(a2-6)Gal(b1-4)GlcNAc(b1-2)Man(a1-3)[Neu5Ac(a2-6)Gal(b1-4)GlcNAc(b1-2)Man(a1-6)]Man(b1-4)GlcNAc(b1-4)[Fuc(a1-6)]GlcNAc", "procedure,_shortened": "as §1"}, "[5]": {"biological_target": "Neu5Ac(a2-6)Gal(b1-4)GlcNAc(b1-2)Man(a1-6)Man(b1-4)GlcNAc(b1-4)GlcNAc", "procedure,_shortened": "as §1"}, "[6]": {"biological_target": "Neu5Ac(a2-6)Gal(b1-4)GlcNAc(b1-2)Man(a1-6)[Gal(b1-4)GlcNAc(b1-2)Man(a1-3)]Man(b1-4)GlcNAc(b1-4)GlcNAc", "procedure,_shortened": "as §1"}, "[7]": {"biological_target": "Neu5Ac(a2-6)Gal(b1-4)GlcNAc(b1-2)Man(a1-6)[GlcNAc(b1-2)Man(a1-3)]Man(b1-4)GlcNAc(b1-4)GlcNAc", "procedure,_shortened": "as §1"}, "[8]": {"biological_target": "Neu5Ac(a2-6)Gal(b1-4)GlcNAc(b1-2)Man(a1-6)[Man(a1-3)]Man(b1-4)GlcNAc(b1-4)GlcNAc", "procedure,_shortened": "as §1"}, "[9]": {"biological_target": "Neu5Ac(a2-6)Gal(b1-4)GlcNAc(b1-2)[Neu5Ac(a2-6)Gal(b1-4)GlcNAc(b1-4)]Man(a1-3)[GlcNAc(b1-4)][Neu5Ac(a2-6)Gal(b1-4)GlcNAc(b1-2)[Neu5Ac(a2-6)Gal(b1-4)GlcNAc(b1-6)]Man(a1-6)]Man(b1-4)GlcNAc(b1-4)GlcNAc", "procedure,_shortened": "as §1"}, "[10]": {"biological_target": "Neu5Ac(a2-6)Gal(b1-4)GlcNAc(b1-2)[Neu5Ac(a2-6)Gal(b1-4)GlcNAc(b1-4)]Man(a1-3)[GlcNAc(b1-4)][Neu5Ac(a2-6)Gal(b1-4)GlcNAc(b1-4)Man(a1-6)]Man(b1-4)GlcNAc(b1-4)GlcNAc", "procedure,_shortened": "as §1"}, "[11]": {"biological_target": "Neu5Ac(a2-6)Gal(b1-4)GlcNAc(b1-2)[Neu5Ac(a2-6)Gal(b1-4)GlcNAc(b1-6)]Man(a1-6)[Neu5Ac(a2-6)Gal(b1-4)GlcNAc(b1-2)Man(a1-3)][GlcNAc(b1-4)]Man(b1-4)GlcNAc(b1-4)GlcNAc", "procedure,_shortened": "as §1"}, "[12]": {"biological_target": "Neu5Ac(a2-6)Gal(b1-4)GlcNAc(b1-3)Gal(b1-3)GlcNAc", "procedure,_shortened": "as §1"}, "[13]": {"biological_target": "Neu5Ac(a2-6)Gal(b1-4)GlcNAc(b1-3)Gal(b1-4)GlcNAc", "procedure,_shortened": "as §1"}, "[14]": {"biological_target": "Neu5Ac(a2-6)Gal(b1-4)GlcNAc(b1-3)Gal(b1-4)GlcNAc(b1-2)Man(a1-3)[Neu5Ac(a2-6)Gal(b1-4)GlcNAc(b1-3)Gal(b1-4)GlcNAc(b1-2)Man(a1-6)]GalNAc", "procedure,_shortened": "as §1"}, "[15]": {"biological_target": "Neu5Ac(a2-6)Gal(b1-4)GlcNAc(b1-3)Gal(b1-4)GlcNAc(b1-3)Gal(b1-4)GlcNAc", "procedure,_shortened": "as §1"}, "[16]": {"biological_target": "Neu5Ac(a2-6)Gal(b1-4)GlcNAc(b1-3)Gal(b1-4)GlcNAc(b1-3)Gal(b1-4)GlcNAc(b1-2)Man(a1-3)[Neu5Ac(a2-6)Gal(b1-4)GlcNAc(b1-3)Gal(b1-4)GlcNAc(b1-3)Gal(b1-4)GlcNAc(b1-2)Man(a1-6)]GalNAc", "procedure,_shortened": "as §1"}, "[17]": {"biological_target": "Neu5Ac(a2-6)Gal(b1-4)GlcNAc(b1-3)Gal(b1-4)GlcNAc(b1-3)GalNAc", "procedure,_shortened": "as §1"}, "[18]": {"biological_target": "Neu5Ac(a2-6)Gal(b1-4)GlcNAc(b1-3)Gal(b1-4)GlcNAc(b1-3)[Neu5Ac(a2-6)Gal(b1-4)GlcNAc(b1-3)Gal(b1-4)GlcNAc(b1-6)]GalNAc", "procedure,_shortened": "as §1"}, "[19]": {"biological_target": "Neu5Ac(a2-6)Gal(b1-4)GlcNAc(b1-3)Gal(b1-4)GlcNAc(b1-6)[Gal(b1-3)]GalNAc", "procedure,_shortened": "as §1"}, "[20]": {"biological_target": "Neu5Ac(a2-6)Gal(b1-4)GlcNAc(b1-3)Gal(b1-4)[Fuc(a1-3)]GlcNAc(b1-3)Gal(b1-4)[Fuc(a1-3)]GlcNAc", "procedure,_shortened": "as §1"}, "[21]": {"biological_target": "Neu5Ac(a2-6)Gal(b1-4)GlcNAc(b1-3)GalNAc", "procedure,_shortened": "as §1"}, "[22]": {"biological_target": "Neu5Ac(a2-6)Gal(b1-4)GlcNAc(b1-3)[Neu5Ac(a2-6)Gal(b1-4)GlcNAc(b1-6)]GalNAc", "procedure,_shortened": "as §1"}, "[23]": {"biological_target": "Neu5Ac(a2-6)Gal(b1-4)GlcNAc(b1-6)GalNAc", "procedure,_shortened": "as §1"}, "[24]": {"biological_target": "Neu5Ac(a2-6)Gal(b1-4)GlcNAc(b1-6)[Gal(b1-3)GlcNAc(b1-3)]Gal(b1-4)Glc", "procedure,_shortened": "as §1"}, "[25]": {"biological_target": "Neu5Ac(a2-6)Gal(b1-4)GlcNAc(b1-6)[Gal(b1-3)]GalNAc", "procedure,_shortened": "as §1"}, "[26]": {"biological_target": "Neu5Ac(a2-6)Gal(b1-4)GlcNAc6S", "procedure,_shortened": "as §1"}, "Neu5Ac(a2-6)GalNAc": {"biological_target": "Neu5Ac(a2-6)GalNAc", "procedure,_shortened": "as §1"}, "[27]": {"biological_target": "Neu5Ac(a2-6)GalNAc(b1-4)GlcNAc", "procedure,_shortened": "as §1"}, "[28]": {"biological_target": "Neu5Ac(a2-6)GalNAc(b1-4)GlcNAc6S", "procedure,_shortened": "as §1"}, "[29]": {"biological_target": "Neu5Ac(a2-6)GlcNAc(b1-4)GlcNAc", "procedure,_shortened": "as §1"}, "[30]": {"biological_target": "Neu5Ac(a2-6)GlcNAc(b1-4)GlcNAc(b1-4)GlcNAc", "procedure,_shortened": "as §1"}},
  "note": "Some of the results follow.",
  "data": [
    {"binder": "AT5G01260(PC)(40) (Arabidopsis thaliana), Q9LFB0 (protein) MIGIGRTLTSSSPSKIILEDLPPGIYRYGTEIFTSVPRKTFHHIKFLRLDSAQSSRILKPVPLRSSSIKDSQVNVEDEEIEASNKTVRVRFQLRKECVFGEHFFIVGDDPVFGGLWDPETALPLNWSDGNVWTVDLDLPVGRLVEFKLLLKAQTGEILWQPGPNRALETWETNKTIRICEDWDNADLQMMIEEDFVPYTNISSIGSEDEDEVLGSVQQNSSVVAVENAGYVSDESAQNSSFSIQSEKTMEPSNGALTAREVIKEAMFTEEESPVLVPGLIPLSDLDNEQVEVINEGKAETFPEVDKKQEPKAERNKKAKVKAISLFEKSEQEAVKSVEQRQYNAVEEEQQRLETEPLGTPDVLFENDIQWGRRTLYKLLSNFRLF", "values": [
      {"measurement": "glycan array binding signal (z-score)", "setting": "[1]", "result": 0.32},
      {"measurement": "glycan array binding signal (z-score)", "setting": "[2]", "result": -0.259},
      {"measurement": "glycan array binding signal (z-score)", "setting": "[3]", "result": 0.093},
      {"measurement": "glycan array binding signal (z-score)", "setting": "[4]", "result": 0.727},
      {"measurement": "glycan array binding signal (z-score)", "setting": "[5]", "result": -0.415},
      {"measurement": "glycan array binding signal (z-score)", "setting": "[6]", "result": -0.165},
      {"measurement": "glycan array binding signal (z-score)", "setting": "[7]", "result": -0.22},
      {"measurement": "glycan array binding signal (z-score)", "setting": "[8]", "result": -0.27},
      {"measurement": "glycan array binding signal (z-score)", "setting": "[9]", "result": -0.782},
      {"measurement": "glycan array binding signal (z-score)", "setting": "[10]", "result": -0.428},
      {"measurement": "glycan array binding signal (z-score)", "setting": "[11]", "result": -0.36},
      {"measurement": "glycan array binding signal (z-score)", "setting": "[12]", "result": 0.853},
      {"measurement": "glycan array binding signal (z-score)", "setting": "[13]", "result": 0.343},
      {"measurement": "glycan array binding signal (z-score)", "setting": "[14]", "result": 0.243},
      {"measurement": "glycan array binding signal (z-score)", "setting": "[15]", "result": -0.48},
      {"measurement": "glycan array binding signal (z-score)", "setting": "[16]", "result": 0.183},
      {"measurement": "glycan array binding signal (z-score)", "setting": "[17]", "result": -0.429},
      {"measurement": "glycan array binding signal (z-score)", "setting": "[18]", "result": -0.22},
      {"measurement": "glycan array binding signal (z-score)", "setting": "[19]", "result": -0.628},
      {"measurement": "glycan array binding signal (z-score)", "setting": "[20]", "result": -0.054},
      {"measurement": "glycan array binding signal (z-score)", "setting": "[21]", "result": 0.256},
      {"measurement": "glycan array binding signal (z-score)", "setting": "[22]", "result": 0.077},
      {"measurement": "glycan array binding signal (z-score)", "setting": "[23]", "result": -0.851},
      {"measurement": "glycan array binding signal (z-score)", "setting": "[24]", "result": -0.442},
      {"measurement": "glycan array binding signal (z-score)", "setting": "[25]", "result": -0.226},
      {"measurement": "glycan array binding signal (z-score)", "setting": "[26]", "result": 0.483},
      {"measurement": "glycan array binding signal (z-score)", "setting": "Neu5Ac(a2-6)GalNAc", "result": -0.152},
      {"measurement": "glycan array binding signal (z-score)", "setting": "[27]", "result": -0.024},
      {"measurement": "glycan array binding signal (z-score)", "setting": "[28]", "result": -0.189},
      {"measurement": "glycan array binding signal (z-score)", "setting": "[29]", "result": -0.632},
      {"measurement": "glycan array binding signal (z-score)", "setting": "[30]", "result": 0.3}
    ]}
  ]
}
